This is an account of results in article PMC6919601, “Identification of Plasmodium dipeptidyl aminopeptidase allosteric inhibitors by high throughput screening” (PLoS ONE, 2019).

Out of some 110,000 compounds screened, about 230 (0.21%) showed an effect of 50% or more. The list shows a part of the results.
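Also: 30 min substrate incubation versus DMSO and 10 µM JCP410 controls.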

The target of this experiment is DPAP1 (Plasmodium falciparum, UniProt Q8IIJ9). The experiment in a line: primary screen, percent inhibition; read by cleavage of a fluorogenic dipeptide substrate; higher = more effect of the substance. The arrangement: species or system P. falciparum D10 trophozoite lysates; single well.
DPAP1, sequence (Q8IIJ9 whole entry, looked up): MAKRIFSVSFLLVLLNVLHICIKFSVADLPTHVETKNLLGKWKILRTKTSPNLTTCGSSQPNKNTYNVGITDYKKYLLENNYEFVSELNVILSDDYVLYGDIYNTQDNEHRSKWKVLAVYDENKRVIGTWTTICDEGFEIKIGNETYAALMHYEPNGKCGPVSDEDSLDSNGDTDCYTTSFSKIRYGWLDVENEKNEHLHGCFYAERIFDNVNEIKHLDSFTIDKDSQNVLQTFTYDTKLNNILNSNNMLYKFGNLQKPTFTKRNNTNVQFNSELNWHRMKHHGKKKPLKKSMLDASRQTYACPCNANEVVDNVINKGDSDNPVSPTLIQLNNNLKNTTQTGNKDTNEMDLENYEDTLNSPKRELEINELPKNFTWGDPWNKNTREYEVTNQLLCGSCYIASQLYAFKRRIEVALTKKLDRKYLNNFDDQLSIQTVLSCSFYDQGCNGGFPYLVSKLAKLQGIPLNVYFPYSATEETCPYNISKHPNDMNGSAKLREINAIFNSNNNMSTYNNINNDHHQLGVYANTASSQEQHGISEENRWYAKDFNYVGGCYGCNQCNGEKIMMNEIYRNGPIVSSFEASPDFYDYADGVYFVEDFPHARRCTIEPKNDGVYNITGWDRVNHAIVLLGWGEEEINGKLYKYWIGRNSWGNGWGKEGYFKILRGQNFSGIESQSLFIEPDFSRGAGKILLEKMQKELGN
For the compound `Cc1ccc(S(=O)(=O)N(Cc2ccccc2)Cc2ccccc2)cc1`, the “% Inhibition @ 10 uM” value is given as -0.999%.

Turning to `CCOC(=O)c1cc(S(=O)(=O)NCC2CCN(Cc3cccc(C)c3)CC2)cn1C`, the “% Inhibition @ 10 uM” value is on record as 3.92%. `Cc1nc2sccn2c1-c1csc(Nc2ccc(N(C)C)cc2)n1`: the “% Inhibition @ 10 uM” value is -0.711%.

For `O=C1c2ccccc2C(=O)n2ccnc21`, the “% Inhibition @ 10 uM” value is reported as -10.1%. For the compound `CCOc1ccccc1N1CCN(C(=O)CC)CC1`, the “% Inhibition @ 10 uM” value amounted to 2.03%. With `N#CCNC(=O)[C@H](CC1CCCCC1)NC(=O)c1cccc([N+](=O)[O-])c1`, the “% Inhibition @ 10 uM” value came out at 1.35%.

With `Nc1nc(/C=C/c2cccnc2)nc(-c2ccccc2O)n1`, the “% Inhibition @ 10 uM” value was -0.834%. Regarding `COc1ccc(C2C(C(C)=O)=C(C)N=c3s/c(=C/c4ccc(OC)cc4OC)c(=O)n32)cc1` (stereo not drawn), the “% Inhibition @ 10 uM” value is -0.305%. The figure for `O=C(Nc1ccc2ccccc2c1)c1cccc(NC(=O)C(F)(F)F)c1` is -1.64%; for `O=C(NCc1ccccc1)c1ccccc1Br` it is 5.35%; for `Cc1ccc(S(N)(=O)=O)cc1NC(=O)COc1ccc(Cl)cc1C` it is -2.37%.

In the case of `Cc1ccccc1OCC(=O)Nc1ccc(S(=O)(=O)Nc2nccs2)cc1`, the “% Inhibition @ 10 uM” value is 5.25%.

`O=C(CN(c1ccc(F)cc1)S(=O)(=O)c1ccccc1)N1CCN(Cc2ccccc2)CC1`: the “% Inhibition @ 10 uM” value is listed as -6.44%. The figure for `Cc1ccc(OCC(=O)Nc2cc(Cl)ccc2Cl)cc1` is -1.05%; for `CCN(CC)CCN1C(=O)CCCc2sc3c(c21)CCCC3` it is -1.91%; for `CCOc1ccccc1C(=O)Nc1cccc(C(C)=O)c1` it is 0.219%. Take `Cc1ccc(/C=C/C2=NC(=C\c3cc(Br)cs3)/C(=O)O2)cc1`: the “% Inhibition @ 10 uM” value is given as 14.8%. Regarding `COc1cc(OC)c(C2C(C#N)=C(N)OC3=C2C(=O)CCC3)cc1OC` (stereo not drawn), the “% Inhibition @ 10 uM” value is reported as -0.0372%. For `Cc1csc2nc(CNC(=O)c3cccc(C(F)(F)F)c3)cn12`, the “% Inhibition @ 10 uM” value is 2.57%. With `Cc1ccccc1S(=O)(=O)Cc1ccc(C(=O)NCCc2ccc(Cl)cc2)o1` the figure was 2.14%; with `CC1=NN(C(=O)c2ccc(COc3cc(C)cc(C)c3)o2)C(O)(C(F)(F)F)C1` (stereo not drawn), -0.545%. As for `CC1(c2ccccc2)OC(=O)C2C3CCCCC3=C3CCCCC3C21` (stereo not drawn), the “% Inhibition @ 10 uM” value is listed as -3.66%. With `COc1cccc(C=C2C(=O)N(C)C(=O)N(C)C2=O)c1OC` the figure was -0.771%. With `CC12CN3CCN(C1)CC(C)(C3)C2=NO` the figure was -2.15%; with `O=C(c1ccco1)N1CCN(c2csc3ccccc3c2=O)CC1`, -1.51%; with `Cc1c(NC(=O)c2ccccc2)cc(S(=O)(=O)c2ccccc2)c(O)c1C`, 1.25%. For the compound `CC(=O)Nc1ccc2nc(SCC(=O)N3CCCC3)sc2c1`, the “% Inhibition @ 10 uM” value came to 6.27%. The figure for `COc1ccccc1/C=C/CN1CCN(C)CC1` is 1.08%.

For `Cn1c(N)c(C(=O)c2ccccc2)c(=O)n(C)c1=O`, the “% Inhibition @ 10 uM” value stood at 4.09%. For the compound `COc1cc(/C=C/C(=O)c2c(O)cc(C)oc2=O)cc(OC)c1O`, the “% Inhibition @ 10 uM” value came to 6.43%.

`Cc1ccc2nc(N(CCCN(C)C)C(=O)c3ccc(Cl)s3)sc2c1`: the “% Inhibition @ 10 uM” value came to 4.91%. For `CC(CN(C)C)OC(=O)C1(c2ccccc2)CCCC1` (stereo not drawn), the “% Inhibition @ 10 uM” value is given as -7.01%. With `N#Cc1c(-c2ccccc2)cc(-c2ccccc2)nc1SCC(N)=O` the figure was 4.67%; with `CCC(O)C#CC1(C)CCCC(C)(C)O1` (stereo not drawn), -5.41%; with `CCN(CC)C(=O)CSc1nc(C23CC4CC(CC(C4)C2)C3)ccc1C#N`, -2.79%.

`Cc1cccc(C(=O)Nc2ccccc2Br)c1`: the “% Inhibition @ 10 uM” value is -0.0404%.

For `CC(C)C[C@H](NC(=O)c1ccc(-c2csc(N=C(N)N)n2)cc1)C(=O)N[C@@H](Cc1cccnc1)C(=O)O`, the “% Inhibition @ 10 uM” value was -5.64%. With `CCN(CC)CCOC(=O)c1cccc2c1-c1ccccc1C2O` (stereo not drawn) the figure was 1.84%; with `CC[C@H](NC(=O)[C@H](CS(=O)(=O)Cc1ccccc1)NC(=O)N1CCOCC1)C(=O)c1ccccn1`, -8.82%; with `CCOC(=O)c1nn(-c2ccccc2)c(C(=O)OCC)c1NC(=O)C1CCCCC1`, -7.23%. The figure for `Cc1nnc(N2C(=N)S/C(=C\c3ccco3)C2=O)s1` is -3.74%; for `COc1ccc(C2C(C#N)=C(N)Oc3[nH]nc(-c4cccs4)c32)cc1Br` (stereo not drawn) it is -4.6%; for `COc1cc(C2=NOC(C(=O)Nc3cc(C)nn3-c3ccccc3)C2)cc(OC)c1OC` (stereo not drawn) it is -0.431%. As to `CCOC(=O)c1c(C)c(C(=O)N2CCCCCC2)c(C)n1C`, the “% Inhibition @ 10 uM” value is recorded as -1.66%. Regarding `CCOc1ccc(C2C(C#N)=C(N)Oc3c2c(C)nn3-c2ccc(C)cc2)cc1` (stereo not drawn), the “% Inhibition @ 10 uM” value was -4.49%. With `O=C(CCN1C(=O)c2cccc3cccc(c23)C1=O)N1CCN(C/C=C\c2ccccc2)CC1` the figure was 5.39%; with `COc1cc(CN2CCCCC2CO)cc2c1OCO2` (stereo not drawn), -1.5%. With `CC(C)Cc1cc(C(=O)O)[nH]n1` the figure was 0.275%; with `COc1ccc(C2CC3=NC(C)=C(C#N)C(c4ccc(N(C)C)cc4)C3=C(O)C2)cc1` (stereo not drawn), -1.66%. The figure for `Cc1ccc(CCNC(=O)C2CCC(=O)N2CCc2ccccc2)cc1` (stereo not drawn) is 3.24%.

Take `COc1ccc(NC(=O)c2ccc3c(c2)C(=O)N(c2ccccc2OC)C3=O)cc1`: the “% Inhibition @ 10 uM” value is recorded as -8.01%.

`CC(=O)c1[nH]c2ccccc2c1C(=O)O`: the “% Inhibition @ 10 uM” value is recorded as -2.14%. With `N#CC1=C(/N=C/c2ccccc2O)CCC1` the figure was 4.41%; with `Cc1ccc(-n2nc3c(c2NC(=O)COc2ccc(Cl)cc2Cl)CS(=O)(=O)C3)c(C)c1`, 4.23%; with `CCc1ccc(CNC(=O)CCC(=O)N2Cc3ccccc3Oc3ncccc32)cc1`, -8.07%. With `Cc1ccccc1OCCn1cccc1/C=C1\C(=N)N2N=C(N3CCCC3)SC2=NC1=O`, the “% Inhibition @ 10 uM” value is -3.44%. The figure for `Cc1cc(C)n(S(=O)(=O)c2ccc(N)cc2)c(=O)n1` is 1.5%; for `COc1ccc(C(=O)N2CCN(Cc3ccncc3)CC2)cc1OC` it is -4.7%; for `O=S(=O)(Cc1ccccc1)N1CCC(Oc2cccc(C(F)(F)F)c2)CC1` it is 2.29%. The figure for `Cc1ccc(-n2ncc(C(=O)NCCc3c[nH]c4ccccc34)c2-n2cccc2)cc1` is -3.03%. With `O=C(c1ccco1)N1CCN(c2nc3c(S(=O)(=O)c4ccccc4)nnn3c3ccccc23)CC1` the figure was -2.68%. As to `CC(C)CC(=O)Nc1c2c(nn1-c1cccc(Cl)c1)CS(=O)(=O)C2`, the “% Inhibition @ 10 uM” value is -0.657%. With `COc1ccc(C2C3=C(O)CCCC3=NC(C)=C2C(=O)Nc2ccccc2C)c(OC)c1` (stereo not drawn) the figure was 0.746%.
